Where “and” joins values, the source holds several entries; their conditions need not be identical. Identical values can stand only once. This list was built around the results that the source calls inconclusive (neither active nor inactive); the mix of calls is not that of the screen. For part of these data: Where the call is inconclusive, the potency comes from a doubtful curve fit. Calls of active or inactive are those of the source. Unless noted, calls come from the whole dose curve; as a rule, active = well fitted curve in the direction sought with a large enough effect in the repeat runs; inconclusive = weak or mixed curves; inactive = no such curve, though single readings can be large; an effect the other way counts as inactive or inconclusive.
Tests used:
[1] = qHTS assay to identify small molecule antagonists of the retinoid-related orphan receptor gamma (ROR-gamma) signaling pathway - cell viability counter screen (AID 1159520); note: nearly all actives have a fitted effect of over 50% in size
Summary of the method: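 Tet-on ROR gamma CHO cells were given compounds for 2 hr, then doxycycline hyclate at 1 uM final, and incubated 16 hr at 37 C. Viability was measured as ATP content by CellTiter-Glo luminescence.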

[2] = biological target: Nuclear receptor ROR-gamma (Homo sapiens) (UniProt P51449); test: qHTS assay to identify small molecule antagonists of the retinoid-related orphan receptor gamma (ROR-gamma) signaling pathway (AID 1159521; note: nearly all actives have a fitted effect of over 50% in size)
Summary of the method: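 Decreased RORE-driven luciferase luminescence indicates antagonism. Tet-on RORγ CHO cells received compound, then 1 uM final doxycycline 2 h later; signal read after 16 h incubation.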

[3] = qHTS assay to identify small molecule agonists of the AP-1 signaling pathway - cell viability counter screen (AID 1159525; calls by dose curve; note: nearly all actives have a fitted effect of over 55% in size)
Summary of the method: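 Same-well cytotoxicity counter screen of the Tox21 10K library in ME-180 cells. The readout is ATP-dependent luminescence after 5 h compound treatment. Data are normalised to DMSO and tetra n-octyl ammonium bromide controls.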

[4] = biological target: Retinoic acid receptor RXR-alpha (Homo sapiens) (UniProt P19793); test: qHTS assay to identify small molecule agonists of the RXR signaling pathway (AID 1159527; calls by dose curve; note: nearly all actives have a fitted effect of over 35% in size; for activation: % is set by controls: 0 for no effect and ±100 for the full control effect); conditions: HEK293T RXRa-UAS-bla, beta-lactamase ratio, 16 h; activation: at 76.8 µM (top of the series) unless noted
Sequence of UniProt P19793 (P19793 whole entry, looked up): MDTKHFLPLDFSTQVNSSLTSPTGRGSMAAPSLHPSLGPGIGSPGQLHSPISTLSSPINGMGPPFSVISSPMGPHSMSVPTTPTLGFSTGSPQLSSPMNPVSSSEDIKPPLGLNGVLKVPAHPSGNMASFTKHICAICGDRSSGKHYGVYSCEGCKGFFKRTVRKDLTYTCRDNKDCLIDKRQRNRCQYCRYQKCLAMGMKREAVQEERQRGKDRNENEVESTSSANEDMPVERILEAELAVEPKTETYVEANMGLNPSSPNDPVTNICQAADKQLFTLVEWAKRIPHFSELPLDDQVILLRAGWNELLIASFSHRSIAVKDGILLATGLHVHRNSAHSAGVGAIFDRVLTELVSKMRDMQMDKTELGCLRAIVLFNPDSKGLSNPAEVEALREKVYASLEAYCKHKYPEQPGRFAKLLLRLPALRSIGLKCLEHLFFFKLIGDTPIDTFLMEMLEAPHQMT
Summary of the method: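 16 hr incubation of compound-treated RXR-alpha-UAS-bla HEK 293T cells (2% charcoal-stripped FBS, 37 C) preceded a 2 hr room-temperature LiveBLAzer FRET substrate step and blue/green fluorescence measurement.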

[5] = qHTS assay to identify small molecule agonists of the RXR signaling pathway - cell viability counter screen (AID 1159529); note: nearly all actives have a fitted effect of over 50% in size
Summary of the method: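 In this parallel viability measure, GeneBLAzer RXR-alpha HEK 293T cells (2% charcoal-stripped FBS) were given a 5 hr preincubation, treated with compounds 16 hr at 37 C, and read by CellTiter-Glo luminescence.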

[6] = qHTS assay to identify small molecule antagonists of the retinoic acid receptor (RAR) signaling pathway (AID 1159552; note: nearly all actives have a fitted effect of over 50% in size)
Summary of the method: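 C3RL4 RARE-luc cells, overnight plating; retinol 1 uM final added right after compound; 6 hr 37 C; luciferase read at 30 min RT.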

[7] = qHTS assay to identify small molecule agonists of the retinoic acid receptor (RAR) signaling pathway (AID 1159553); conditions: C3RL4 RARE luciferase reporter, agonist, 6 h; activation: at 73.3 µM (top of the series) unless noted; for activation: % is set by controls: 0 for no effect and ±100 for the full control effect
Summary of the method: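 Quantitative high-throughput format: the Tox21 10K library was tested on C3RL4 RARE-luciferase cells for 6 hr at 37 C and 5% CO2, with luminescence measured after a 30 min room-temperature reagent step.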

[8] = qHTS assay to identify small molecule antagonists of the estrogen related receptor (ERR) signaling pathway from Tox21 library - cell viability counter screen (AID 1224834); note: nearly all actives have a fitted effect of over 30% in size
Summary of the method: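 Compounds in DMSO were pinned onto ERR cells that had been incubated for 6 h, and the plates were held at 37 C for 17.5 h. CellTiter-Fluor reagent was then added and fluorescence was measured after 30 min.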

[9] = biological target: Luciferin 4-monooxygenase (Photinus pyralis) (UniProt P08659); test: qHTS assay to identify small molecule inhibitors of firefly luciferase (AID 1224835); note: nearly all actives have a fitted effect of over 25% in size
Sequence of UniProt P08659 (P08659 whole entry, looked up): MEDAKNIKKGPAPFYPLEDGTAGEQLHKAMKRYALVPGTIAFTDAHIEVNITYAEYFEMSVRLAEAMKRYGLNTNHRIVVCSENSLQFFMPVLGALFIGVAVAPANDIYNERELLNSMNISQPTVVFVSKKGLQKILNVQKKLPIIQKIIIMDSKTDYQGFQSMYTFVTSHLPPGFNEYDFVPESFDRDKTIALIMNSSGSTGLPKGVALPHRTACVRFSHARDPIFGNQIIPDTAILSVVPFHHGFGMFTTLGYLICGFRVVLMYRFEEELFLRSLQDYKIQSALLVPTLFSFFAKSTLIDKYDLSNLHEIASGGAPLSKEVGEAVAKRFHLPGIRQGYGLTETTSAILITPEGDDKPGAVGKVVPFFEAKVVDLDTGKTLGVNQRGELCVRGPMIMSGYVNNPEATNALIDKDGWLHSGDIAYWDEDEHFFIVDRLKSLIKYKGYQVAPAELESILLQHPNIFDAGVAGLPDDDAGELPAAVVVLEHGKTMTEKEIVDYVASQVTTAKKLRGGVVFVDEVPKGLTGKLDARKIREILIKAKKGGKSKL
Summary of the method: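 Biochemical qHTS: compounds run as interplate titrations against purified firefly enzyme, with D-luciferin and ATP each at its KM concentration. Light output recorded by CCD imaging.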

[10] = qHTS assay to identify small molecule agonists of the endoplasmic reticulum stress response signaling pathway - cell viability counter screen (AID 1159517; calls by dose curve; note: nearly all actives have a fitted effect of over 50% in size)
Summary of the method: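 Steps: seed 1,500 ESRE-bla HeLa cells per well; incubate overnight at 37 C, 5% CO2; add compounds in DMSO for 5 hr; run FRET substrate 2 hr RT; add CellTiter-Glo, wait 30 min, read luminescence.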

[11] = qHTS assay to identify small molecule agonists of the AP-1 signaling pathway (AID 1159526; calls by dose curve; for activation: % is set by controls: 0 for no effect and ±100 for the full control effect); conditions: ME-180 (cervical carcinoma) AP-1-bla reporter, beta-lactamase FRET ratio, 5 h; activation: at 76.8 µM (top of the series) unless noted
[12] = qHTS assay to identify small molecule antagonists of the retinoid acid receptor (RAR) signaling pathway - cell viability counter screen (AID 1159551); note: nearly all actives have a fitted effect of over 35% in size
Summary of the method: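 ATP-based viability, C3RL4 cells, 6 h at 37 C with 1 uM final retinol co-added after compound; luminescence read 30 min post CellTiter-Glo, RT.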

[13] = qHTS assay to identify small molecule agonists of the constitutive androstane receptor (CAR) signaling pathway - cell viability counter screen (AID 1224836); note: nearly all actives have a fitted effect of over 45% in size
Summary of the method: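 Using CellTiter-Fluor, viability of HepG2 cells harbouring hCAR and CYP2B6-2.2kb was measured following 23 h incubation with a 15-concentration compound series plus PK11195 (0.75 uM final).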

[14] = qHTS assay to identify small molecule antagonists of the constitutive androstane receptor (CAR) signaling pathway - cell viability counter screen (AID 1224837); note: nearly all actives have a fitted effect of over 45% in size
Summary of the method: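 Cells are seeded, rested 4 hr at 37 C/5% CO2, dosed with compound (15-point series) and 50 nM CITCO, incubated a further 23 hr, and then CellTiter-Fluor reagent is added before fluorescence is read. The line is HepG2 with stable hCAR and CYP2B6-2.2kb.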

[15] = qHTS assay to identify small molecule antagonists of the estrogen related receptor (ERR) signaling pathway - cell viability counter screen (AID 1224818);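 note: viability measured after 17.5 h of compound exposure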
Summary of the method: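 Quantitative high-throughput viability counter screen in ERR cells. Compounds (DMSO) incubated 17.5 h at 37 C; read-out was CellTiter-Fluor fluorescence.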

[16] = qHTS assay to identify small molecule antagonists of the estrogen related receptor (ERR) signaling pathway (AID 1224819; note: nearly all actives have a fitted effect of over 50% in size)
Summary of the method: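 ERR reporter cell line (NTP) plated at 2,000 cells/well, settled 6 h at 37C/5% CO2, then exposed to LOPAC compounds for 18 h at 37C. One-Glo luciferase luminescence read after 30 min at room temperature.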

[17] = test system: estrogen-related receptor alpha (ERRalpha) with PGC-1alpha coactivator, human; test: qHTS assay to identify small molecule antagonists of the estrogen related receptor signaling pathway with the pleiotropic PPARgamma coactivator (PGC) (AID 1224821; calls by dose curve; note: nearly all actives have a fitted effect of over 50% in size)
Summary of the method: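 PGC/ERR reporter cells; 6 h pre-incubation 37 C/5% CO2; pin-tool compound in DMSO, 18 h 37 C; One-Glo added, 30 min RT; luminescence read. qHTS antagonist mode.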

[18] = qHTS assay to identify small molecule antagonists of the estrogen related receptor signaling pathway with the pleiotropic PPARgamma coactivator (PGC) cell viability counter screen (AID 1224822)
Summary of the method: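 Cytotoxicity in the PGC/ERR cell line is assessed with CellTiter-Fluor, read as fluorescence intensity 30 min after reagent addition, following 17.5 h compound treatment at 37 C.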
Potency is the fitted concentration of half-maximal effect; tags give direction and shape of the fitted curve or compound fluorescence and quenching.

## COP(=O)(OC)OC(Br)C(Cl)(Cl)Br (centres undefined)
[1]
  Potency: inconclusive: 21.7 µM [cytotoxic, partial curve] and active: 24.3 µM
[2]
  Potency: active: 27.3 µM and inconclusive: 68.6 µM [inhibitor, single point]
[3]
  Potency: inconclusive: 39 µM [rising, partial curve, poor fit]
[4]
  activation: inconclusive: -23%
[5]
  Potency: inconclusive: 43.6 µM [cytotoxic, partial curve, poor fit]
[6]
  Potency: inconclusive: 77 µM [inhibitor, single point]
[7]
  Potency: inconclusive: 24.4 µM [activator] and inconclusive: 1.54 µM [activator, partial curve, poor fit]
[8]
  Potency: inconclusive: 68.7 µM [cytotoxic]
[9]
  Potency: inconclusive: 15.9 µM [inhibitor, full curve]

## N#CC(Cl)Cl
[10]
  Potency: inconclusive: 13.4 µM [rising, partial curve, poor fit]
[4]
  Potency: inactive
[7]
  Potency: active: 47.3 µM

## Cc1cc(Cl)ccc1OC(C)C(=O)O (centres undefined)
[1]
  Potency: inactive

## CC(C)(c1ccccc1)c1ccc(O)cc1
[1]
  Potency: inconclusive: 34.1 µM [cytotoxic, partial curve] and inconclusive: 48.6 µM [cytotoxic, partial curve]
[2]
  Potency: inconclusive: 68.6 µM [inhibitor, single point]
[3]
  Potency: inconclusive: 54.5 µM [cytotoxic, single point] and inconclusive: 54.9 µM [cytotoxic, single point]
[11]
  Potency: inconclusive: 54.5 µM [cytotoxic, partial curve] and inconclusive: 49 µM [partial curve]
[4]
  Potency: inconclusive: 54.5 µM [inhibitor, partial curve, poor fit]
  activation: inconclusive: -14.9%
[5]
  Potency: active: 43.3 µM and active: 54.9 µM
[12]
  Potency: inconclusive: 68 µM [cytotoxic, partial curve, poor fit]
[6]
  Potency: active: 61.1 µM
[8]
  Potency: inconclusive: 60.6 µM [cytotoxic, partial curve] and inconclusive: 68.6 µM [cytotoxic, single point]
[13]
  Potency: inconclusive: 68.6 µM [cytotoxic]

## COP(=S)(OC)Oc1ccc([N+](=O)[O-])cc1Cl
[10]
  Potency: inconclusive: 2.19 µM [cytotoxic, single point]
[4]
  activation: inconclusive: -24.4%
[5]
  Potency: inconclusive: 43.6 µM [cytotoxic, partial curve]
[7]
  activation: inconclusive: 2.93% [phenotype inactive]
[8]
  Potency: active: 48.6 µM
[13]
  Potency: inconclusive: 48.6 µM [cytotoxic, partial curve]
[14]
  Potency: inconclusive: 54.5 µM [cytotoxic, partial curve]

## O=C(Nc1ccccc1)Nc1ccnc(Cl)c1
[1]
  Potency: inconclusive: 43.3 µM [cytotoxic, partial curve, poor fit]
[2]
  Potency: inconclusive: 68.6 µM [inhibitor, single point]
[11]
  activation: inconclusive: -14%
[4]
  Potency: inconclusive: 7.76 µM [rising, full curve, poor fit]
[5]
  Potency: inconclusive: 4.36 µM [cytotoxic, full curve, poor fit]
[7]
  Potency: inconclusive: 3.86 µM [activator, full curve, poor fit]
[8]
  Potency: active: 43.3 µM
[13]
  Potency: active: 48.6 µM
[14]
  Potency: inconclusive: 54.5 µM [cytotoxic, partial curve]

## C=C(C)[C@H]1Cc2c(ccc3c2O[C@@H]2COc4cc(OC)c(OC)cc4[C@@H]2C3=O)O1
[1]
  Potency: inconclusive: 96.9 nM [cytotoxic, full curve] and inconclusive: 94.4 nM [cytotoxic, full curve]
[2]
  Potency: active: 34.8 nM and active: 770 nM and active: 10.6 nM
[11]
  Potency: inconclusive: 54.9 µM [falling, single point]
[12]
  Potency: inconclusive: 2.77 µM [cytotoxic, full curve] and inconclusive: 15.4 µM [cytotoxic, full curve] and inconclusive: 11.9 µM [cytotoxic, partial curve]
[6]
  Potency: inconclusive: 7.8 µM [inhibitor, full curve] and inconclusive: 1.37 µM [inhibitor, full curve] and inconclusive: 668 nM [inhibitor, full curve]
[15]
  Potency: inconclusive: 1.33 µM [cytotoxic]
[16]
  Potency: active: 0.081 µM
[17]
  Potency: active: 0.0361 µM
[18]
  Potency: inconclusive: 6.68 µM [cytotoxic]
[8]
  Potency: active: 8.75 µM and active: 8.63 µM and active: 376 nM
[13]
  Potency: active: 875 nM and active: 1.54 µM and active: 668 nM
[14]
  Potency: active: 1.96 µM and active: 770 nM and active: 531 nM

## O=C(O)COc1ccc(Cl)cc1
[10]
  Potency: inconclusive: 0.0871 µM [rising, full curve, poor fit]
[4]
  activation: inconclusive: 2.81%
